# Results from paper PMC4336329 (PLoS ONE, 2015).
# Screen size: about 310,000 compounds; about 2,200 (0.71%) showed an effect of 50% or more. Effects have a minus sign here. The list shows a part of the results.
# Biological target: human ether-à-go-go-related gene (hERG) potassium channel (human, UniProt Q12809)
# Experiment: primary screen, population patch clamp on CHO cells stably expressing hERG
# human ether-à-go-go-related gene (hERG) potassium channel, sequence (Q12809 whole entry, looked up): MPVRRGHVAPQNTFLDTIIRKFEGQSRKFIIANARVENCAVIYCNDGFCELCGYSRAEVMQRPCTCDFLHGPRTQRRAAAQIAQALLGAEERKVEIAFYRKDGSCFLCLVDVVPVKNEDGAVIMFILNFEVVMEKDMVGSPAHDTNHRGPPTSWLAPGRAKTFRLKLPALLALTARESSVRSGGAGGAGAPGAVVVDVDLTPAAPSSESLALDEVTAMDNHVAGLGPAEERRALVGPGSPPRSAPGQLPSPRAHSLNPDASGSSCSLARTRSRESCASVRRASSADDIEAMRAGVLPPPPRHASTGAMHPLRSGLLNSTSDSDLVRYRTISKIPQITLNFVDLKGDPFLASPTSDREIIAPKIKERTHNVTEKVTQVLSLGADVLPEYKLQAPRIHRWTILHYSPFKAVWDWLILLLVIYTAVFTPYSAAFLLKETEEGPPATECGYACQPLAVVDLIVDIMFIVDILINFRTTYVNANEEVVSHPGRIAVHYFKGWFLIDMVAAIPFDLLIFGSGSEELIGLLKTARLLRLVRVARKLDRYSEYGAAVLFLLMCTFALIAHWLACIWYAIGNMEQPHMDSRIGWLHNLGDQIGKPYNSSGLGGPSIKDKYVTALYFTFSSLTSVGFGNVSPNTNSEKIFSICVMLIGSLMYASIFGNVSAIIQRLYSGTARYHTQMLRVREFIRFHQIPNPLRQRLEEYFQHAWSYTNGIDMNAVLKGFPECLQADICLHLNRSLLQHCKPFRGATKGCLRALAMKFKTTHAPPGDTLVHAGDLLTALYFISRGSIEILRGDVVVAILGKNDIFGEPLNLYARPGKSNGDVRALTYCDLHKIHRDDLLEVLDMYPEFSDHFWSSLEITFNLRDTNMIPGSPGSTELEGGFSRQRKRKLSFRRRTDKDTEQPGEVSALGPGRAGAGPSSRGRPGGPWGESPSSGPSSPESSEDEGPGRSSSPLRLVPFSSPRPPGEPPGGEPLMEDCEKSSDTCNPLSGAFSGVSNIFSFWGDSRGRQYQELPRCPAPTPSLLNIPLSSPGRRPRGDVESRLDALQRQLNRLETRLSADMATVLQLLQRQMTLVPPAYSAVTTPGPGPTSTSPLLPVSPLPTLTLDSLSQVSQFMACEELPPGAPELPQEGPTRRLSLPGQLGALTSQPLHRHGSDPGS
row,Structure (SMILES),"hERG current change (%, negative = inhibition) at 1uM [%]"
1,N#CCOC(=O)c1sccc1-n1cccc1,-2.11
2,COC(=O)CNC(=O)c1c(-c2c(Cl)cccc2Cl)noc1C,-1.45
3,O=C(O)CC12CC3CC(C1)CC(n1ncc(N4CCC5(CC4)OCCO5)c(Cl)c1=O)(C3)C2,8.08
4,O=[N+]([O-])c1cc(Cc2ccccc2)cc(C=Nc2ccc(N3CCOCC3)cc2)c1O,18.2
5,CC1CCCN(S(=O)(=O)c2ccc(NC(=O)CNC3CCCC3)cc2)C1 (centres unmarked),16
6,COc1ccc(S(=O)(=O)NCCCN2CCOCC2)c2ccccc12,1.27
7,CCCc1nn(-c2cc(Cl)ccc2OC)c2c1C(=O)CC(C)(C)C2,4.21
8,CC(C)CCN(CCC(C)C)C/C(O)=C(\C#N)c1nc(-c2ccccc2)cs1,12
9,O=C(Nc1ccccc1Cl)NC1(C(=O)N2CCOCC2)CCCCC1,17.8
10,Cc1cccc(-n2c(=O)c3ccccc3n3c(=S)[nH]nc23)c1C,17.3
11,COc1ccc(-c2noc(CN3CCCCC3)n2)cc1OC,-0.964
12,O=C(Nc1cccnc1Oc1ccc(Cl)cc1)c1cccc2ccccc12,9.85
13,O=C(NCc1ccccc1)C1CCN(C(=O)Cc2ccccc2)CC1,11.9
14,CCOC(=O)c1cnn(-c2nc(C)cc(C)n2)c1N,-3.18
15,O=C(CCN1C(=O)C2C3CCC(C3)C2C1=O)OCC(=O)c1cccc([N+](=O)[O-])c1 (centres unmarked),5.89
16,O=C1COc2ccccc2N1Cc1ccccc1Cl,19.2
17,COc1ccc(C(=O)CN2CCN(c3ccc(F)cc3)CC2)cc1OC,-4.69
18,Cc1nnsc1C(=O)NC1CCCc2c1cnn2-c1ccccc1F (centres unmarked),9.52
19,CCCCNC(=O)CC(C(=O)N1CCc2ccccc21)n1ccnc1 (centres unmarked),-9.37

row,Structure (SMILES),"hERG current change (%, negative = inhibition) at 1uM [%]"
1,O=C(NC(=S)Nc1ccc2oc(=O)ccc2c1)c1cc2ccccc2o1,10.2
2,COCCNC(=S)N/N=C(\C)c1ccc(O)cc1,7.8
3,Cc1ccc(C)c(NC(=S)NCCN2CCOCC2)c1,6.74
4,Cc1ccc(S(=O)(=O)N(C)c2cc(S(=O)(=O)N3CCC(C)CC3)c(C)cc2C)cc1,12.5
5,CCC(=O)Nc1cccc(C(=O)Nc2nccs2)c1,8.98
6,COc1ccc(N2CCN(Cc3cc(=O)oc4cc(C)c(Cl)c(C)c34)CC2)cc1,7.38
7,CCn1c(CNC(=O)c2cccc(C)c2)nnc1SCC(=O)NC1CCCCC1C (centres unmarked),17.8
8,O=C(Nc1ccc(S(=O)(=O)N2CCCC2)cc1)Nc1ccc(F)cc1F,13.5
9,C/C(=N\NC(=O)c1cccc(S(=O)(=O)N2CCCC2)c1)c1ccncc1,2.14
10,CCn1cc(C(=O)N2CCN(c3cccc(Cl)c3)CC2)c2cc(OC)c(OC)cc2c1=O,-29.9
11,CCC(Cc1ccccc1)NS(=O)(=O)c1c(C)nc2scc(C)n2c1=O (centres unmarked),14.7
12,O=C(c1n[nH]c(=O)c2ccccc12)N1CCC2(CC1)OCCO2,21.8
13,CCC(C)(C)NC(=O)CN(Cc1cccs1)C(=O)CCC(=O)Nc1nccs1,-7.3
14,Cc1cccc(NC(=O)CSc2nc3[nH]ncc3c(=O)n2-c2ccccc2)c1,-0.53
15,CCC1CCC(C(=O)NC(C(=O)NCCN2CCOCC2)C(C)C)CC1 (centres unmarked),13
16,Oc1ccc(N=Nc2ccc3c(c2)OCCO3)c2ncccc12,10.4
17,CN(C)c1nc(N)c([N+](=O)[O-])c(NCc2ccccc2)n1,5.92
18,O=C(OCC(=O)N1CCc2ccccc2C1)c1ccc(N2CCOCC2)c([N+](=O)[O-])c1,-0.912
19,Cn1c(Cn2c(=O)sc3ccccc32)nnc1SCC(=O)Nc1ccc2c(c1)OCO2,9.37

row,Structure (SMILES),"hERG current change (%, negative = inhibition) at 1uM [%]"
1,Nc1ccc(C(=O)[O-])c(O)c1.O.[Na+],15
2,CC(=O)c1cc2c(cc1NS(=O)(=O)c1ccccc1C)OCO2,5.78
3,CN1CCc2c(c3c(n2C)CCN(C)[C@@H]3c2cccnc2)[C@H]1c1cccnc1.Cl,23.7
4,O=C(OCCCc1cc2ccccc2c(=O)o1)c1ccc(F)cc1,6.43
5,COc1ccccc1CN1CCC(n2nccc2NC(=O)CCCc2ccccc2)CC1,-42.7
6,COC(=O)c1cc(NC(=O)c2ccccc2)c(=O)oc1C/C=N\OCc1ccc(Cl)cc1Cl,-0.0974
7,CC1CCN(c2ccccc2NC(=O)c2ccc(F)cc2)CC1,12.2
8,O=C(c1ccccc1Br)N1CCN(c2ncccn2)CC1,11.7
9,COc1cc2[nH]c(=S)n(CC3CCCO3)c(=O)c2cc1OC (centres unmarked),4.14
10,Cc1ccc(C2(C)NC(=O)N(CC(=O)NNC(=O)c3cc(C)oc3C)C2=O)cc1 (centres unmarked),14.4
11,Cc1nc2sccc2c(=O)n1-c1cccc(Cl)c1,6.02
12,CCN(CC)CCCSc1nc2ccccc2s1.O=C(O)C(=O)O,-2.99
13,CC1Cc2ccccc2N1c1ncnc(N)c1[N+](=O)[O-] (centres unmarked),3.69
14,CC(C)(C)Nc1scc(-c2ccccc2)[n+]1-c1ccccc1.[Br-],-0.495
15,CCN1C[C@]2(COC)CC[C@H](O)[C@@]34C5C[C@@H]6[C@@H](OC)C[C@@](O)(C5[C@H]6O)[C@](O)([C@@H](OC)C23)[C@@H]14 (some centres unmarked),9.78
16,O=C1Nc2ccccc2C12OCC(COc1ccc(Cl)cc1)O2 (centres unmarked),11
17,CCc1nn(CC(=O)NCCc2ccc(OC)cc2OC)c(=O)c2cc3occc3n12,10.4
18,COc1ccccc1NC(=O)c1c([N+](=O)[O-])c(C(C)(C)C)nn1C,-1.17
